{"source": "PubChem BioAssay AID1240", "about": "(Sanford-Burnham Center for Chemical Genomics, 2008)", "note": "The campaign covered roughly 50,000 compounds. About 800 (1.6%) showed an effect of 50% or more. Some of the results follow."}
{"molecular_target": "Bcl-2-like protein 10 (Homo sapiens) (UniProt Q9HD36)", "sequence (Q9HD36 whole entry, looked up)": "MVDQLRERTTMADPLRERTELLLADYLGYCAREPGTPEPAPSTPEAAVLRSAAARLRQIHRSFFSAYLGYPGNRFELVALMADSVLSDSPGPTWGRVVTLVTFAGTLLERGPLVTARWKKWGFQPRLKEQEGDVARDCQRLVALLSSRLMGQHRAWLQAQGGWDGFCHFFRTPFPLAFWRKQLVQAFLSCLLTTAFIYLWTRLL", "test": "TR3 peptide-Bcl-B binding displacers, biochemical primary FP assay, phenotype converters (AID 1240);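 further: 0% = Bcl-B with tracer peptide and DMSO and 100% = tracer peptide lacking Bcl-B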", "conditions": "GST-Bcl-B / FITC-TR3 peptide fluorescence polarization; stronger effect = higher value; compound at 3.75 mg/L", "units": {"displacement": "%"}}
{"smiles": "O=C1C2ON(c3ccc(Cl)cc3)C(c3ccc(F)cc3)C2C(=O)N1c1ccccc1", "note": "(configuration not stated)", "displacement": 2.5}
{"smiles": "O=C1c2cccc3c(N4CCCCC4)ccc(c23)C(=O)N1c1ccc(Cl)cn1", "displacement": 25.4}
{"smiles": "O=C(CCCOc1ccc(Cl)cc1Cl)N1CCCc2ccccc21", "displacement": -12.7}
{"smiles": "CCOc1ccc(N2C(=O)/C(=C/c3ccc4c(c3)OCO4)SC2=S)cc1", "displacement": 6.1}
{"smiles": "COc1ccc(CCN2C(=O)/C(=C/c3sccc3C)SC2=S)cc1OC", "displacement": -1.7}
{"smiles": "CN(C)c1ccc(NS(=O)(=O)c2ccc(F)cc2)cc1", "displacement": 8.7}
{"smiles": "O=C(c1ccc(-c2ccc(Cl)cc2)o1)N1CCOCC1", "displacement": 21.9}
{"smiles": "O=c1[nH]c(=O)n(-c2ccccc2Cl)c(O)c1C=Nc1cccc(F)c1", "displacement": 8.7}
{"smiles": "Cc1ccc(N2C(=O)/C(=C/c3ccc(O)c(O)c3)SC2=S)cc1C", "displacement": 7}
{"smiles": "CCn1c2ccccc2c2cc(C=Nc3ccccc3C(=O)Nc3ccccc3)ccc21", "displacement": -5.9}
{"smiles": "Cc1cc(NC(=O)CSc2nc(-c3ccccc3)cc(-c3ccccc3)n2)no1", "displacement": 11.1}
{"smiles": "CCCn1c(=O)c(C(=O)Nc2ccc(F)cc2)c(O)c2ccccc21", "displacement": 9.1}
{"smiles": "COC(=O)c1ccc(NC(=O)COc2ccc(C)cc2Br)cc1", "displacement": -10.6}
{"smiles": "O=C1Nc2ccccc2/C1=c1/sc2n(c1=O)CCN=2", "displacement": -2.1}
{"smiles": "CCOc1ccc(-c2nnc(NC(=O)CSCc3ccccc3)s2)cc1", "displacement": 21.1}
{"smiles": "Cc1ccnc(NC(=O)c2cc(I)ccc2Cl)c1", "displacement": -4}
{"smiles": "O=C1NC(=S)NC(=O)C1=Cc1ccccc1OCc1ccccc1Cl", "displacement": 8.8}
{"smiles": "COc1ccccc1N1CCN(/N=C\\c2cccn2C)CC1", "displacement": -4.6}
{"smiles": "CCOc1cc(/C=C2/SC(=S)NC2=O)ccc1OC", "displacement": 119}
{"smiles": "O=C(CCCC(=O)OCC(F)(F)C(F)F)Nc1ccc(Br)cc1", "displacement": -3.1}
{"smiles": "Cc1cccc(NC(=O)/C(C#N)=C\\c2ccc(OCC(=O)O)cc2)c1", "displacement": -1.7}
{"smiles": "Cc1cc(Cl)ccc1NC(=O)C(=O)NC(C)C", "displacement": 31.9}
{"smiles": "Cc1cc(OCC(=O)Nc2ccc3c(c2)OCCO3)cc(C)c1Cl", "displacement": 1}
{"smiles": "O=C(Nc1ccc(Cl)cn1)c1cccc(Cl)c1Cl", "displacement": 7.9}
{"smiles": "Cc1ccc(N(C)S(=O)(=O)c2ccc(Cl)cc2)cc1", "displacement": 0.6}
{"smiles": "COc1ccc(/C=N/Nc2ncc(Br)cn2)cc1", "displacement": -11.3}
{"smiles": "O=C(O)c1ccc(C(=O)c2ccccc2)o1", "displacement": -18.2}
{"smiles": "CCCCNc1c2c(nc3ccccc13)CC(C)(C)CC2=O", "displacement": 1.6}
{"smiles": "COCC(COCCCNC(=O)Nc1ccc(Br)cc1)OC", "note": "(configuration not stated)", "displacement": -9.9}
{"smiles": "CCN1C(=O)/C(=C\\c2ccc(-c3ccc(C(=O)O)cc3)o2)SC1=S", "displacement": -49.9}
{"smiles": "Cc1cccc(NC(=O)CCCN2C(=O)c3cccc4cccc(c34)C2=O)c1", "displacement": 4}
{"smiles": "CCOc1c(/C=C2\\Sc3ccccc3C2=O)cccc1OC", "displacement": 4.5}
{"smiles": "CCCc1c(C)nc2c(Br)cccc2c1SCC(=O)O", "displacement": 2.1}
{"smiles": "Cc1ccc2oc(-c3ccc(NC(=O)c4ccc(-c5ccc(Cl)cc5)o4)cc3O)nc2c1", "displacement": -3.5}
{"smiles": "CCSC1=C(C#N)C(c2cccs2)C(C(=O)Nc2ccccc2OC)=C(C)N1", "note": "(configuration not stated)", "displacement": 2.5}
{"smiles": "C=CCc1cccc(/C=N/NC(=O)c2cc(C3CC3)[nH]n2)c1O", "displacement": -14.1}
{"smiles": "CCC(NC(=O)c1ccccc1NC(=O)c1ccc(OC)cc1)C(=O)O", "note": "(configuration not stated)", "displacement": -7.4}
{"smiles": "O=C(O)c1ccc(-c2ccccc2OC(F)(F)F)o1", "displacement": -1.6}
{"smiles": "COc1cc(C=C2C(=O)NC(=O)NC2=O)ccc1OCCC(C)C", "displacement": 12.4}
{"smiles": "C(=N\\Nc1nc(-c2ccccc2)cs1)/c1cccnc1", "displacement": -19.5}
{"smiles": "CC1CN(S(=O)(=O)c2ccc(C(=O)Nc3nc(-c4ccc([N+](=O)[O-])cc4)cs3)cc2)CC(C)O1", "note": "(configuration not stated)", "displacement": 13.7}
{"smiles": "CCOc1ccc(/C=C(\\NC(C)=O)C(=O)O)cc1", "displacement": -6.3}
{"smiles": "COc1ccc2c(c1OC)C(=O)OC2Nc1cc(C(=O)O)cc(C(=O)O)c1", "note": "(configuration not stated)", "displacement": -0.8}
{"smiles": "CCCc1ccc2c(N)c(C(=O)c3ccc(Cl)cc3)sc2n1", "displacement": 0.5}
{"smiles": "CC(=O)N1CCN(C2=NC(=O)/C(=C/c3ccccc3)S2)CC1", "displacement": 5.3}
{"smiles": "CNC(=O)/C(=C/c1cccc([N+](=O)[O-])c1)NC(=O)c1ccc(OC)cc1", "displacement": 10.8}
{"smiles": "O=C(/C=C/c1ccco1)N1CCN(c2ccc(F)cc2)CC1", "displacement": 6.8}
{"smiles": "Clc1ccccc1-c1ccc(/C=N/Nc2nc(N3CCOCC3)nc(N3CCOCC3)n2)o1", "displacement": 1.3}
{"smiles": "O=C(NC1C2CC3CC(C2)CC1C3)c1ccccc1Br", "note": "(configuration not stated)", "displacement": 5.1}
{"smiles": "CN1CCN(NC(=O)Nc2ccc(Cl)c(Cl)c2)CC1", "displacement": -6.1}
{"smiles": "Cc1cc(C=C2C(=O)c3ccccc3C2=O)c(C)n1-c1cccc(Cl)c1", "displacement": 180}
{"smiles": "COc1cccc(NC2=C(Cl)C(=O)N(Cc3ccccc3)C2=O)c1", "displacement": -4.4}
{"smiles": "Cc1c(C#N)c(N=CN(C)C)c(C(=O)c2ccc(Br)cc2)n1-c1ccc(Br)cc1", "displacement": -5.4}
{"smiles": "Cc1cc(NC2CCCCC2)nc2ccccc12", "displacement": -3.4}
{"smiles": "CCOC(=O)CCC(=O)Nc1cc(-c2cccc(C)c2)[nH]n1", "displacement": 9.9}
{"smiles": "CCn1c2ccccc2c2cc(CN3CCN(Cc4cc(OC)ccc4O)CC3)ccc21", "displacement": 18.2}
{"smiles": "COc1ccc(NC(=O)CC2(c3ccc(OC)cc3)C(=O)c3ccccc3C2=O)cc1", "displacement": -6.2}
{"smiles": "C=CCn1c2ccccc2c2nnc(SCC)nc21", "displacement": -4.5}
{"smiles": "COc1ccc(/C=C2\\SC(=Nc3ccc(O)cc3)NC2=O)cc1OC", "displacement": -6.3}
{"smiles": "Nc1nc(NCCCN2CCOCC2)cc(-c2ccccc2)n1", "displacement": -6.1}
{"smiles": "O=[N+]([O-])c1cc(-n2ncnc2-c2ccc(Br)cc2)ccc1Cl", "displacement": -7.7}
{"smiles": "Cc1ccccc1N1OC2C(=O)N(c3ccc(F)cc3)C(=O)C2C1c1ccccc1", "note": "(configuration not stated)", "displacement": -3.8}
{"smiles": "c1ccc(Nc2nnc(CSc3nc4ccccc4s3)s2)cc1", "displacement": 12.8}
{"smiles": "O=C(c1cc2n(n1)C(C(F)(F)F)CC(c1ccc(Cl)cc1)N2)N1CCN(c2ccccc2)CC1", "note": "(configuration not stated)", "displacement": 9.6}
{"smiles": "CN1CCN(c2ccc([N+](=O)[O-])c(NCc3ccc(Cl)cc3)c2)CC1", "displacement": 7.1}
{"smiles": "Fc1ccc(OCCOCCOc2ncnc3ccccc23)cc1", "displacement": 0.7}
{"smiles": "CC12CS(=O)(=O)CC1SC(=S)N2c1ccccc1", "note": "(configuration not stated)", "displacement": -3.3}
{"smiles": "CSc1nnc(-c2ccco2)n1-c1ccccc1", "displacement": -11.4}
{"smiles": "CCOc1ccc(C(=O)Nc2ccc(OC(F)(F)F)cc2)cc1Br", "displacement": -7.7}
{"smiles": "Cc1cccc(OCC(=O)NCC(=O)N/N=C/c2cccs2)c1", "displacement": 3.9}
{"smiles": "N#C/C(=C\\c1ccc(-c2cccc(C(F)(F)F)c2)o1)C(=O)O", "displacement": -0.2}
{"smiles": "Cc1ccccc1NCC(=O)N/N=C\\c1cccnc1", "displacement": 5.7}
